{"source": "PubChem BioAssay AID1468", "about": "(National Center for Advancing Translational Sciences (NCATS), 2008)", "note": "Values joined by “and” are separate entries in the source; they are usually repeats but may differ in a detail not shown here. Identical values can stand only once. In all, about 280,000 compounds went through this assay and about 1,100 (0.39%) were called active. Inconclusive means that the source gave no clear call. Such entries were picked first, then a sample of the others. Calls come from the whole dose curve; as a rule, active = well fitted inhibition curve with a large enough effect; inconclusive = small, poorly fitted or top-dose-only effect, or effect the other way; inactive = flat fitted curve, though single readings scatter. A potency beside an inconclusive call is a rough fit, not a confirmed value. Potency is the fitted concentration of half-maximal effect; tags give direction and shape of the fitted curve.", "data": [{"target": "Microtubule-associated protein tau (Homo sapiens) (UniProt P10636)", "sequence (P10636 whole entry, looked up)": "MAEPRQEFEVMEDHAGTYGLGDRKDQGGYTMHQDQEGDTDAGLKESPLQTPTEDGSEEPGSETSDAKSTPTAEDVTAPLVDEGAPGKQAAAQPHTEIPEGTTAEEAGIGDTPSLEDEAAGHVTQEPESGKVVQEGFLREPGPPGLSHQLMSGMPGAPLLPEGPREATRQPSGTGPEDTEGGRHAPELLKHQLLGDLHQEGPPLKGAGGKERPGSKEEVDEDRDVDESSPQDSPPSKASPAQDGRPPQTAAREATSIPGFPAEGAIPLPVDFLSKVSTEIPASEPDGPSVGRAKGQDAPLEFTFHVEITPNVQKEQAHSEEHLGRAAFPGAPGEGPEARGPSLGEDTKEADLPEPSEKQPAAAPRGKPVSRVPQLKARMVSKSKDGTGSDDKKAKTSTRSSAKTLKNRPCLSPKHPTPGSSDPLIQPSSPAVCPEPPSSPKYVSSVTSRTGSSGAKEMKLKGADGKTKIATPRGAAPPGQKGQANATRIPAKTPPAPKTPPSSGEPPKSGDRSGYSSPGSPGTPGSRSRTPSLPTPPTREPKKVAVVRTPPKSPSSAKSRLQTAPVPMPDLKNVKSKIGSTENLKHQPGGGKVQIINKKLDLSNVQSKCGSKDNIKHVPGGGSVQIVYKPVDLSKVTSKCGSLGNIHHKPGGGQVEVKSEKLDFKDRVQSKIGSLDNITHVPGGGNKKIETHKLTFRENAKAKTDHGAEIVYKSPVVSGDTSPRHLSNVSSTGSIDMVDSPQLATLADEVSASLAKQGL", "assay": "qHTS for Inhibitors of Tau Fibril Formation, Fluorescence Polarization; note: nearly all actives have a fitted effect of over 55% in size", "conditions": "K18 P301L tau heparin fibrillization, Alexa594 FP, 6 h; series mostly up to 57.7 µM", "outline": "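Compound effects on tau fibrillization are measured by Alexa 594 fluorescence polarization (ex 555, em 632 nm). K18 P301L tau is used at 15 uM with 0.24 uM labeled tracer, and 20 uM heparin induces aggregation over 6 hr at 37 C.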", "values": [{"smiles": "Cc1ccc(CN2CCNC(=O)C2CC(=O)NCC(F)(F)F)o1", "note": "(configuration not stated)", "Potency": "inconclusive: 8.91 µM [inhibitor, partial curve]"}, {"smiles": "CCc1nnc(N/N=C/c2ccccc2Cl)n1N", "Potency": "inactive"}, {"smiles": "COc1ccc(N=c2oc3cc(O)ccc3cc2C(=O)Nc2ccccn2)cc1OC", "Potency": "inconclusive: 28.2 µM [inhibitor, single point]"}, {"smiles": "Oc1ccccc1CNc1cccc2cccnc12", "Potency": "inconclusive: 3.16 µM [inhibitor, full curve]"}, {"smiles": "CCCCCC(=O)NC(=S)Nc1ccc(NC(=O)c2ccco2)cc1", "Potency": "inactive"}, {"smiles": "O=C(Nc1cccc(Cl)c1)c1ccc2c(c1)CCN2S(=O)(=O)c1ccccc1", "Potency": "inconclusive: 14.1 µM [inhibitor, partial curve]"}, {"smiles": "CCCCS(=O)(=O)/C=C\\C=C/S(=O)(=O)CCCC", "Potency": "inconclusive: 4.47 µM [inhibitor, full curve]"}, {"smiles": "CCOc1ccc(NC(=O)CC2C(=O)N(c3ccc(Cl)cc3)C(=O)N2Cc2cccs2)cc1", "note": "(configuration not stated)", "Potency": "inconclusive: 11.2 µM [inhibitor, partial curve, poor fit]"}, {"smiles": "COc1cccc(NC(=O)c2ccc(-c3nc(COc4ccccc4)c(C)o3)cc2)c1", "Potency": "inconclusive: 3.16 µM [inhibitor, full curve]"}, {"smiles": "Cc1cccc2cc(C#N)c(NCc3ccccc3)nc12", "Potency": "inactive"}, {"smiles": "Cc1ccccc1S(=O)(=O)NC1OC(=O)C(Cl)=C1Cl", "note": "(configuration not stated)", "Potency": "active: 28.2 µM"}, {"smiles": "CCOC(=O)c1sc(NC(=O)c2cccc(S(=O)(=O)N3c4ccccc4CC3C)c2)cc1C", "note": "(configuration not stated)", "Potency": "inactive"}, {"smiles": "Nc1c(S(=O)(=O)c2cccs2)c2nc3ccccc3nc2n1CCc1ccccc1", "Potency": "inconclusive: 17.8 µM [inhibitor, partial curve]"}, {"smiles": "O=C1c2ccccc2C(=O)N1CSc1nnc(Nc2ccccc2F)s1", "Potency": "inconclusive: 28.2 µM [inhibitor, partial curve]"}, {"smiles": "COc1ccc(C(NC(=O)CNC(C)=O)C(=O)Nc2ccc(C(C)C)cc2)cc1", "note": "(configuration not stated)", "Potency": "inconclusive: 2.82 µM [inhibitor, partial curve]"}, {"smiles": "Cc1ccccc1OCCn1c(-c2ccc(Cl)cc2)nc2ccccc2c1=O", "Potency": "inconclusive: 0.178 µM [inhibitor, full curve, poor fit]"}, {"smiles": "O=C1CN(Cc2ccccc2)C(=NCc2ccco2)S1", "Potency": "inconclusive: 35.5 µM [inhibitor, single point]"}, {"smiles": "Cc1ccc(CNC(=O)c2ccc(Cn3c(=O)c4ccccc4n(CC(=O)Nc4ccc(C)cc4)c3=O)cc2)cc1", "Potency": "inconclusive: 31.6 µM [inhibitor, partial curve]"}, {"smiles": "Cc1ccc(C2=NC(=O)/C(=C/c3cc(O)c(O)c(Br)c3)S2)cc1", "Potency": "inconclusive: 7.94 µM [inhibitor, partial curve]"}, {"smiles": "Cc1cccc(NC(=O)Cn2cc(C(=O)c3ccco3)c3ccccc32)c1", "Potency": "inconclusive: 31.6 µM [inhibitor, partial curve] and inconclusive: 28.2 µM [inhibitor, partial curve]"}, {"smiles": "Cc1ccc(NC(=O)Cn2c(=O)n(Cc3nc(-c4ccccc4)no3)c(=O)c3ccccc32)cc1C", "Potency": "inconclusive: 8.91 µM [inhibitor, partial curve]"}, {"smiles": "COc1c(Br)cc([N+](=O)[O-])c(OC)c1C(=O)NC(=O)Nc1cc(Cl)cc(Cl)c1", "Potency": "inconclusive: 10 µM [inhibitor, partial curve, poor fit]"}, {"smiles": "O=C1C(c2[nH]c3ccc(S(=O)(=O)O)cc3c2O)=Nc2ccc(S(=O)(=O)O)cc21", "Potency": "inconclusive: 39.8 µM [inhibitor, partial curve]"}, {"smiles": "COc1ccc(C2c3ccc(O)cc3Oc3ncn4nc(-c5ccco5)nc4c32)cc1OC", "note": "(configuration not stated)", "Potency": "inconclusive: 3.55 µM [inhibitor, single point]"}, {"smiles": "Cc1ccc(CNC(=O)c2c[nH]n3c(=O)c(Cc4ccc(Cl)cc4)c(C)nc23)cc1", "Potency": "inconclusive: 44.7 µM [inhibitor, single point]"}, {"smiles": "CCC1CCCCN1C(=O)CSc1nnc(-c2ccco2)o1", "note": "(configuration not stated)", "Potency": "inactive"}, {"smiles": "Cc1cccc(NC(=O)CS(=O)(=O)c2cccc3nsnc23)c1", "Potency": "inactive"}, {"smiles": "COc1ccccc1CNC(=O)c1ccc2c(=O)n(CCCN3CCCC3=O)c(=S)[nH]c2c1", "Potency": "inconclusive: 20 µM [inhibitor, single point]"}, {"smiles": "Nc1nc(=S)[nH]c2c1C1(CCCCC1)Cc1ccccc1-2", "Potency": "inconclusive: 31.6 µM [inhibitor, single point]"}, {"smiles": "Cc1ccc(S(=O)(=O)Oc2ccccc2/C=N/NC(N)=S)cc1", "Potency": "inconclusive: 15.8 µM [inhibitor, partial curve, poor fit]"}, {"smiles": "O=C(COc1ccc(Cl)cc1Cl)OCn1nnc2ccccc2c1=O", "Potency": "inconclusive: 17.8 µM [inhibitor, partial curve]"}, {"smiles": "CCOc1ccccc1NC(=O)/C=C/C(N)=O", "Potency": "inactive"}, {"smiles": "CC(=O)C1=C(C)OC(N)=C(C#N)C1c1ccncc1", "note": "(configuration not stated)", "Potency": "inconclusive: 39.8 µM [inhibitor, single point]"}, {"smiles": "CC1CCN(c2nc3ccc(C(=O)NCc4ccccc4Cl)cc3s2)CC1", "Potency": "inconclusive: 25.1 µM [inhibitor, single point]"}, {"smiles": "C[C@@H](NC(=O)OC(C)(C)C)c1nnc(S(=O)(=O)Cc2ccccc2)o1", "Potency": "inconclusive: 44.7 µM [inhibitor, single point]"}, {"smiles": "O=[N+]([O-])c1cccc(NC(=S)NCc2ccncc2)c1", "Potency": "inconclusive: 0.251 µM [inhibitor, full curve, poor fit]"}, {"smiles": "Cc1oc2ccc(O)c(CN3CCOCC3)c2c1C(=O)c1ccc(Cl)cc1", "Potency": "inactive"}, {"smiles": "Cc1ccc(S(=O)(=O)c2nnn3c2nc(NCCc2ccccc2)c2sccc23)cc1", "Potency": "inconclusive: 5.62 µM [inhibitor, full curve]"}, {"smiles": "COc1ccc(S(=O)(=O)Nc2ccc3c(c2)OCO3)cc1", "Potency": "inconclusive: 0.0562 µM [inhibitor, full curve, poor fit]"}, {"smiles": "Cc1ncc2c(c1O)COP(=O)(O)OC2", "Potency": "inactive"}, {"smiles": "Cc1cccn2c(=O)c(C(=O)NCCc3ccccc3)cnc12", "Potency": "inconclusive: 0.355 µM [inhibitor, full curve, poor fit]"}, {"smiles": "COc1ccc(C(=O)NCc2nnc(SCC(=O)c3ccccc3)n2C)cc1", "Potency": "inactive"}]}]}
